# According to the supplement of paper PMC3334620:
# In all, about 33,000 sequences were measured (“E-score (-0.5 to 0.5)”: median about -0.043, highest 2% from about 0.37 on). The list shows a part of the results.
# Biological target: T1, Upc2 (UniProt Q12151)
# T1 sequence: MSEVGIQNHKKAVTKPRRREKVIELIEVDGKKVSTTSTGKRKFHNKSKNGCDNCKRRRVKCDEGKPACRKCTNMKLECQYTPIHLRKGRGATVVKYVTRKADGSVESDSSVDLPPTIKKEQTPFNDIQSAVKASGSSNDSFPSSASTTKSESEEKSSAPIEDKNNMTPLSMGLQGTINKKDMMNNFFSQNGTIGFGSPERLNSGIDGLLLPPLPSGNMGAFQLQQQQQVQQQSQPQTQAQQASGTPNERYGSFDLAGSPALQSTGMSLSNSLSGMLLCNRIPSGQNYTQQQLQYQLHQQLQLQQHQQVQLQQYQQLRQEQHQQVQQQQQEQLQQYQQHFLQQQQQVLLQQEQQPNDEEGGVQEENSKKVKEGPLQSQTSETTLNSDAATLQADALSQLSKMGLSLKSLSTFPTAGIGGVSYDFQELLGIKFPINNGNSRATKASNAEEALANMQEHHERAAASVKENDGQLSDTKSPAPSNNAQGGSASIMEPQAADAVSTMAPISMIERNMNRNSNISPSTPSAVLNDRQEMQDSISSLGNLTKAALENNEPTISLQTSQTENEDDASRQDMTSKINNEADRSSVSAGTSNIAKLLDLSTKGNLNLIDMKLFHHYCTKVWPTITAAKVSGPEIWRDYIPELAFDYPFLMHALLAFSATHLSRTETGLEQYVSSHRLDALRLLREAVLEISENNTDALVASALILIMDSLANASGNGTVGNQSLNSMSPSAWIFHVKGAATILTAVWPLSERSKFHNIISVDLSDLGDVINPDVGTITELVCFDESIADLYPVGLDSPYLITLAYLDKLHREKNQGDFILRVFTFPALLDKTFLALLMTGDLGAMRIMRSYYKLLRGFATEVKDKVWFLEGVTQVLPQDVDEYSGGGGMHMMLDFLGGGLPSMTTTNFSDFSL
# Test: PBM E-score (8-mer binding enrichment) (E-score (-0.5 to 0.5)); higher = stronger / more preferred TF binding; most listed sequences are background and not binding sites
# Details: protein concentration: 200 nM; construct: GST-full length
# Experimental: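 Universal 'all 10-mer' protein binding microarrays (Agilent AMADID 015681) probed with GST-tagged S. cerevisiae TFs (full-length or DBD) made by in vitro transcription/translation (PURExpress), about 100-200 nM. Bound TF was detected with fluorescent anti-GST. Each ungapped 8-mer (which stands for itself and its reverse complement) is scored by the PBM enrichment score (E-score), a modified Wilcoxon-Mann-Whitney statistic from -0.5 to +0.5, computed with the Universal PBM Analysis Suite. Scale: above 0.35 generally sequence-specific binding.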
row,Sequence,PBM E-score
1,GGGGGGAC,-0.217
2,CCGCTGAG,-0.12
3,ACTTGGAC,-0.0247
4,ACCTTCTC,-0.113
5,ACCTGCCG,-0.0517
6,CAGTGATG,0.119
7,AAAAAATC,-0.0542
8,AGAACACA,-0.0617
9,AGGTTAGC,-0.3
10,CTATGTGA,-0.109
11,CGAACATA,0.102
12,CAGTCAAG,-0.176
13,GGATCCCA,-0.216
14,GCACCTAC,-0.2
15,TAGACCAA,-0.148
16,AGACATAG,-0.0991
17,TCAATGAA,-0.0537
18,ATTGCGCC,0.0449
19,AGCGGCTA,-0.164
20,CGTTCGAC,0.128
21,ACCGACTC,0.125
22,AGAAATGA,-0.0879
23,TACCAGAA,0.0985
24,ATGACCCC,-0.168
25,AAGGTCGG,-0.187

row,Sequence,PBM E-score
1,AGCTTCTA,-0.0602
2,AATAAGTG,-0.15
3,ACACATCT,-0.114
4,CCCACTAA,-0.18
5,CTATTACC,-0.036
6,ACGGGTAC,0.302
7,AAGTAGAG,-0.0604
8,GGGCTGAC,-0.0227
9,TAAAATGA,0.0326
10,CCAGTGGC,-0.304
11,GCCCGGCA,-0.0915
12,CTCAACGA,0.323
13,ATGACGCA,0.0831
14,ATGGGAGG,-0.164
15,CGTGGCAC,0.03
16,CAGAGTCC,-0.152
17,CCCAGCTC,-0.348
18,GAATCCTC,-0.152
19,CCCTAGCC,-0.116
20,CTTTAGGC,-0.0253
21,ACGTACAA,0.309
22,ATCGTCTC,-0.067
23,ACTACTAC,0.135
24,TGCATGCA,0.0414
25,AGCTCGTA,0.473

row,Sequence,PBM E-score
1,GCTTTCCC,-0.0723
2,CTTGTACC,-0.103
3,CGGGTGTA,0.0853
4,TACAGCGA,0.0182
5,AAATGGCT,-0.179
6,ATTCAATG,0.0611
7,AAGGTTAC,0.00672
8,CGCGGCCG,0.0649
9,GTGCTTCA,-0.104
10,AATGTACG,0.36
11,AAGACAAT,-0.127
12,CCTTCTAC,0.00675
13,AGTATAGA,0.137
14,ACAGTTCC,-0.102
15,GGGAAGCA,-0.132
16,CGCCAGCC,0.0291
17,ACACTGGC,-0.00275
18,CGGCGGAC,-0.126
19,ACGCCCCA,0.0653
20,CTTCTTGC,-0.127
21,CGTTCCAG,0.391
22,TACAGAGA,-0.0478
23,ATCTCGGC,0.0485
24,GCCCATTA,0.133
25,CAAAAAAC,0.00984

row,Sequence,PBM E-score
1,GACAAACC,-0.17
2,ACAATAAG,-0.0749
3,GCAACTGC,0.0352
4,CCAGAGAA,0.0427
5,ACTTGGGG,-0.181
6,AATGCCCA,-0.275
7,GACGACTA,-0.171
8,ACACTATC,-0.0183
9,TCACACCA,-0.00895
10,CCTCTCCA,-0.294
11,CAGAATGC,-0.193
12,AGCCGGTC,-0.272
13,GATCCACA,-0.147
14,AAATTCCG,0.155
15,TGCCGGAA,-0.0467
16,GCTGTTTA,0.0932
17,TAAACTAA,0.212
18,CGAAGAAA,0.0142
19,AGTGATCC,-0.138
20,CGTCTTCA,0.0195
21,ACGGGTGA,0.0591
22,GCCCACGC,-0.177
23,CATAATTC,-0.0886
24,ACGAGTCA,0.249
25,AAATGTAC,0.193

row,Sequence,PBM E-score
1,CCAAGAGC,-0.175
2,ATAGGCTC,-0.0162
3,CCGAAACG,0.346
4,CCGGGAGA,-0.316
5,CCCCAGTA,-0.191
6,GTCTTAAC,-0.0222
7,CAATTTAC,0.104
8,GATATGCC,-0.0792
9,CGAGAACA,0.234
10,CCGTGGTC,-0.166
11,GGAAGCCA,-0.418
12,CCGCACCA,-0.107
13,CCGAGCAA,0.0721
14,CAGATAGA,-0.17
15,CGTAGTGC,-0.0564
16,GAATGAAA,-0.00715
17,CTTATAAG,0.195
18,ACTAGATG,-0.122
19,CGGTGTCA,0.0288
20,TCCGACAA,0.0714
21,CCTGCCAC,-0.386
22,CTTTTCGC,0.093
23,TCAAAACA,-0.052
24,AATTTGTC,0.0333
25,ATGCTCTA,-0.19

row,Sequence,PBM E-score
1,TATAAGAA,0.301
2,CGGGTGAG,-0.215
3,CAACTCCG,-0.124
4,AGCTAAGC,-0.0935
5,ATCCGCAA,-0.112
6,AACGTAGA,0.162
7,CTCTTGCC,-0.16
8,AACACTCC,-0.12
9,AAAGCTCC,-0.216
10,AACGGGTG,0.259
11,ACCCGCTG,-0.245
12,CCCCGGCG,-0.0578
13,CTCCGACC,-0.18
14,ATGCCGTC,-0.0321
15,GCTTAATA,-0.0144
16,AAACGGGC,0.395
17,TCACTCAA,-0.222
18,GCTTACCC,-0.0189
19,ATATTTCG,0.193
20,AAGTATGC,-0.0575
21,ATTCGTTG,0.215
22,GATGGGAC,-0.0558
23,GATGTAAC,-0.111
24,ATGGTCTG,-0.129
25,CATTCGAA,0.111

row,Sequence,PBM E-score
1,CCTGCTTC,-0.109
2,CATATGCA,0.0275
3,GGAAGGCC,-0.297
4,GTGCAAAC,0.17
5,ACCCAAAG,-0.216
6,GTGTAGCA,-0.165
7,CGGGAGCC,-0.038
8,CCTGTCCG,0.0675
9,AAGGCAGC,-0.18
10,ACATATTG,-0.182
11,CACCCGGG,-0.155
12,CCAGAAAG,0.0406
13,CGTCAACA,-0.211
14,AGCTTAGA,0.0114
15,AGGTGATA,-0.0961
16,CAAGAGTG,-0.109
17,TACGAAGA,0.448
18,AGCTTACT,-0.287
19,CGATGGTC,0.0693
20,CAGCAACA,-0.0473
21,ATCAATCG,0.0992
22,AGGCACCC,-0.303
23,CCGGGCAC,-0.214
24,GAAGTCAC,-0.238
25,CTCTCAAG,-0.308

row,Sequence,PBM E-score
1,ATTGTGCA,-0.0646
2,ATCGACTG,0.0556
3,TATTTACA,0.00782
4,CTCCCCCC,-0.323
5,AGCTCTTC,-0.118
6,ATTCGGAG,-0.121
7,CCTTGTAG,-0.276
8,CATAATGA,-0.119
9,GGGCCCGA,-0.0269
10,ATTATAAC,-0.061
11,CTGGGCCA,-0.311
12,CCTGGATC,-0.357
13,CTGCGCAG,0.049
14,ATCTTCTC,-0.0622
15,CTCACGCA,-0.0375
16,CCATGCCC,-0.298
17,ACCCGCAA,-0.172
18,ACTTGTTA,-0.249
19,CGAACCTA,0.0247
20,GCTGGCAA,-0.0682
21,ATTAGTGC,0.0587
22,TCAGGCGA,-0.213
23,CACAGCGG,-0.185
24,AATAGGGA,-0.138
25,GAACAATA,0.217

row,Sequence,PBM E-score
1,ATGCCAAC,0.0593
2,CAACGATA,0.228
3,AAATCTAG,-0.0529
4,GCGACTGA,0.0026
5,GTGTTAGA,-0.0373
6,AGGAGTCG,-0.0517
7,CAGCACAG,-0.0719
8,AGATCCGC,-0.172
9,GGTGTTTA,0.0236
10,CCGAGAGG,0.0477
11,GTTCGGGA,0.0695
12,CAGCCTCG,0.0297
13,GAGCAAGA,-0.0392
14,ATTCCGTG,-0.0761
15,ACTATCTA,0.121
16,CAGAAGAG,-0.205
17,CCGTCGCG,0.132
18,AAATTTGT,0.103
19,AGGAAGAT,-0.202
